For six molecules, binding results are on record in publication PMC4629154.

Amino acid sequences for entries named in this document (tags omitted).
UniProt Q96EB6: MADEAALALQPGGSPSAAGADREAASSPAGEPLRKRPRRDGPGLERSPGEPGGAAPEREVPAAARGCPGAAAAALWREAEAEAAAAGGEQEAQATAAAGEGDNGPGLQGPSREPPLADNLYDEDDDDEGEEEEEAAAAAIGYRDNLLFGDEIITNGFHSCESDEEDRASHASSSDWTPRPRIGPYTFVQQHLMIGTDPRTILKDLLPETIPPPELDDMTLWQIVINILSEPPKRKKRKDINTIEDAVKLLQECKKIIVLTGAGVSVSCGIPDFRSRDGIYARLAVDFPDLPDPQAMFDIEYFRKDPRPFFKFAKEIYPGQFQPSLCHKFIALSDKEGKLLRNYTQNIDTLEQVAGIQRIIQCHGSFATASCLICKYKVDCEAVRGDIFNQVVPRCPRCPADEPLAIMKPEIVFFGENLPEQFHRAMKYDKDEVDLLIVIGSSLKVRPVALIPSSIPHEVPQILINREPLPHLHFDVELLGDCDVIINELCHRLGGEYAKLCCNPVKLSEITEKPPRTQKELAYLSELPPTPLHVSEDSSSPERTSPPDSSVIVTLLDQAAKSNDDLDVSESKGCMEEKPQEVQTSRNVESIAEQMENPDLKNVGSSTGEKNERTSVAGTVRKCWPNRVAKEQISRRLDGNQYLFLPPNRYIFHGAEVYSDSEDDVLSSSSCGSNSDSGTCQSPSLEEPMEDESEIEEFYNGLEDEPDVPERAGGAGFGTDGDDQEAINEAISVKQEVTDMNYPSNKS
UniProt O14980: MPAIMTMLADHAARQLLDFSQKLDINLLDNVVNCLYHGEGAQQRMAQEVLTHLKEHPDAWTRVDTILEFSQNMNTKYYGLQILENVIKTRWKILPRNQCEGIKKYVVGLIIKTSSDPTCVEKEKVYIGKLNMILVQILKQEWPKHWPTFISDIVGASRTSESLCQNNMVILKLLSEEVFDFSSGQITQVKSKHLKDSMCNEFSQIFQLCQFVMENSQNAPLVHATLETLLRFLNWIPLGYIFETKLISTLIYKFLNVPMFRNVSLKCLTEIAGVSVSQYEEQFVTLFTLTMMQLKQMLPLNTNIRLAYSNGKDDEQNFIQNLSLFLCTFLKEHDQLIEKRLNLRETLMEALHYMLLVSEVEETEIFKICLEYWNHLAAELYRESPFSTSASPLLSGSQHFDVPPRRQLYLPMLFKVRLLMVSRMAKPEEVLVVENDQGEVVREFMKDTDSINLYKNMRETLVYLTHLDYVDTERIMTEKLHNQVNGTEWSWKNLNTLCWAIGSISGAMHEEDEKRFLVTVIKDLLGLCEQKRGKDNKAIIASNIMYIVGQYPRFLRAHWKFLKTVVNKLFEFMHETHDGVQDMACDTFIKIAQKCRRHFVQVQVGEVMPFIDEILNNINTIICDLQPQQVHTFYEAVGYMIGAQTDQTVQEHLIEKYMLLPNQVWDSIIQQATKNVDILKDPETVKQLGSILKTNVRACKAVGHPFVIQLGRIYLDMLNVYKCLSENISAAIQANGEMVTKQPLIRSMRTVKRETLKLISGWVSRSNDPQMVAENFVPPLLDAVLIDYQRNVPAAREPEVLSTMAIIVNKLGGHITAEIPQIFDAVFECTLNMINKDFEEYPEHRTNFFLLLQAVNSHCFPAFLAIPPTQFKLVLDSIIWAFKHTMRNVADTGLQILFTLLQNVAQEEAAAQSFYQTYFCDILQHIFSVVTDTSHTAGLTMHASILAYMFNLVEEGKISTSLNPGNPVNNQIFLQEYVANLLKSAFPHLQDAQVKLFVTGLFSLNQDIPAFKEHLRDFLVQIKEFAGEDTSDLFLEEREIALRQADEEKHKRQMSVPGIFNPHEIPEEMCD

In assay [1] the target is GST-fused SIRT1 protein (human) (UniProt Q96EB6). Briefly: pull-down; GST-SIRT1 from E. coli immobilised on glutathione-Sepharose 4B beads, incubated with lysates of transfected HEK293T cells overnight (20 h) at 4 °C, washed thrice with PBS; immunoblot; in some panels cells treated with stimuli for 3 h; only the target purified. A general note: A western blot detects proteins with antibodies after separation by electrophoresis.

The target in a further assay is Myc-tagged SIRT1 (human) (UniProt Q96EB6). Briefly: co-IP; HEK293T cells co-transfected for 48 h; whole-cell lysates; anti-Myc antibody for immunoprecipitation, anti-Flag antibody for immunoblot; in one panel cells treated with LPS.
In assay [2] the target is Flag-HMGB1 K282930R (hypo-acetylation mutant) (mouse) (UniProt P63158). The assay is described as follows: co-IP; HEK293T cells co-transfected for 48 h; whole-cell lysates (PRO-PREP), pre-cleared; anti-Flag antibody (1 ug) overnight at 4 °C, protein G Sepharose 4 h; immunoblot; in some panels cells treated with LPS, TNF-α, Poly (I:C), IFN-γ, resveratrol or sirtinol, or co-transfected with HA-PCAF.

In assay [3] the target is Flag-tagged HMGB1 (high-mobility group box 1), full length (mouse) (UniProt P63158). The description is as above.
In assay [4] the target is GST-fused SIRT1 protein (human) (UniProt Q96EB6). Briefly: pull-down; GST-SIRT1 from E. coli immobilised on glutathione-Sepharose 4B beads, incubated with lysates of transfected HEK293T cells overnight (20 h) at 4 °C, washed thrice with PBS; immunoblot; in some panels cells treated with stimuli for 3 h; only the target purified. The source holds these as a separate data set.

Where two headings read alike, the source gives them in different places. These are yes or no findings as the source states them, for the method shown. Binding seen in cells or lysates may run through a third protein. Some entries that bind do so weakly or less than the wild type. For some assays here: Sequences can lack the tags named with a protein.

As to “Flag-HMGB1-A&B (aa 1-185) (from UniProt P63158 1-185) (domain or fragment)”, the binding entry in assay [1] was “binds”. Take “Flag-HMGB1-B (aa 89-185) (from UniProt P63158 89-185) (domain or fragment)”: in assay [1], the binding result was “no binding”. The same measure, in the same setting: then “Flag-HMGB1-B&C (aa 89-215) (from UniProt P63158 89-215) (domain or fragment)”, with “no binding”.

For the molecule “Flag-tagged HMGB1 (high-mobility group box 1), full length (from UniProt P63158 1-215)”, the binding result (with Myc-tagged SIRT1 (human); in assay [1]) was “binds” throughout. For “HA-tagged chromosome region maintenance 1 (CRM1) (from UniProt O14980 1-1071)”, the binding entry in assay [2] and in assay [3] was “binds” throughout.

B1: Flag-HMGB1-A (aa 1-88) (domain or fragment, UniProt P63158 1-88)
chain: MGKGDPKKPRGKMSSYAFFVQTCREEHKKKHPDASVNFSEFSKKCSERWKTMSAKEKGKFEDMAKADKARYEREMKTYIPPKGETKKK
Regarding B1, the binding entry in assay [4] is “binds”.
